Measurements as given in PubChem BioAssay (NCATS).
Several values for one entry are separate records, joined by “and”; a condition that tells them apart may be missing. Equal values may be shown once. This list was built around the results that the source calls inconclusive (neither active nor inactive); the mix of calls is not that of the screen. Where the call is inconclusive, the potency comes from a doubtful curve fit. Activity calls are given as the source filed them. Calls follow the shape of the dose curve; as a rule, active = well fitted curve in the direction sought with a large enough effect; inconclusive = small, poorly fitted or top-dose-only effect, or another doubt; inactive = no such curve, though single readings can be large; an effect the other way counts as inactive or inconclusive.

Experiments:
[1] = qHTS Screen of the MIPE 4.0 Collection Against Ewings Sarcoma (RDES) (AID 1259252); also: nearly all actives have a fitted effect of over 35% in size; also: potency is read from the fitted curve at half-maximal effect;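 as to viability (percent of control): 100% = DMSO-treated cells and 0% = medium-only wells without cells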
Outline: (§1)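 CellTiter-Glo luminescence after 48 h compound exposure (titration) gave viability; percent activity used DMSO-treated cells as no inhibition and medium-only wells as full inhibition. Cells grown in RPMI/5% FBS, dosed 4 h post-seeding.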

[2] = qHTS Screen of the MIPE 4.0 Collection Against Ewings Sarcoma (EW8) (AID 1259255); also: nearly all actives have a fitted effect of over 35% in size; also: potency is read from the fitted curve at half-maximal effect;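 as to viability: 100% = DMSO-treated cells and 0% = medium-only wells without cells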
Outline: as §1

[3] = qHTS Screen of the MIPE 4.0 Collection Against Ewings Sarcoma (TC32) (AID 1259256); also: nearly all actives have a fitted effect of over 45% in size; also: potency is read from the fitted curve at half-maximal effect;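 as to viability (percent of control): 100% = DMSO-treated cells and 0% = medium-only wells without cells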
Outline: as §1

[4] = Identifying Small Molecule Inhibitors of Pancreatic Cancer Stem Cells (A2780, Spheroid) (AID 1259357); details: Potency: A2780 spheroid viability; viability (percent of control): at 46.1 µM (top of the series);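 also: compound exposure lasted 48 h before the ATP luminescence read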; also: potency is read from the fitted curve at half-maximal effect;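 as to viability (percent of control): 100% = DMSO treated cells and 0% = wells without cells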
Outline: (§2)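 Spheroids grown 14 days in stem cell media on nonadherent hydrogel before screening; cells attached 4 h, then compound exposure 48 h at 37C, 5% CO2. CellTiter-Glo luminescence normalized to DMSO (no inhibition) and no-cell wells (full inhibition).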

[5] = Identifying Small Molecule Inhibitors of Pancreatic Cancer Stem Cells (SN12C, Spheroid) (AID 1259360); details: Potency: SN12C spheroid viability; also: potency is read from the fitted curve at half-maximal effect;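 as to viability (% of control): 100% = DMSO-treated cells and 0% = wells without cells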
Outline: as §2

[6] = Identifying Small Molecule Inhibitors of Pancreatic Cancer Stem Cells (Panc1, Adherent) (AID 1259362); details: Potency: viability; viability, % of control: at 46.1 µM (top of the series); also: potency is read from the fitted curve at half-maximal effect;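 as to viability, % of control: compound exposure lasted 48 h before the viability read; plate controls were DMSO-treated cells for no effect and cell-free media wells for full effect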
Outline: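 After a 4 h attachment period, compounds were pinned into wells and cultures held 48 h under standard incubator conditions. Viability was then measured as CellTiter-Glo luminescence following 10 min at room temperature.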

[7] = P-glycoprotein substrates identified in KB-8-5-11 adenocarcinoma cell line, qHTS therapeutic library screen (AID 1346987); also: nearly all actives have a fitted effect of over 65% in size; also: potency is read from the fitted curve at half-maximal effect
Outline: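 Steps: plate 500 KB-8-5-11 cells/well in DMEM + 10% FCS (colchicine removed); pin compounds in dose-response; incubate 72 h, 37 degree C, 5% CO2; add CellTiter-Glo, 5 min; read luminescence.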

[8] = qHTS assay to identify small molecule inhibitors of chordoma cells - UCH-1 (AID 1259355); also: nearly all actives have a fitted effect of over 55% in size; also: potency is read from the fitted curve at half-maximal effect
Outline: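 Seed 800 cells per well; incubate overnight at 37 C, 5% CO2. Add test compounds (15 concentrations), then the auranofin–topoisomerase-agent combination. Incubate 48hr, add CellTiter-Glo, wait 30min, read luminescence.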

[9] = Identifying Small Molecule Inhibitors of Pancreatic Cancer Stem Cells (A278, Adherent) (AID 1259361); details: viability (% of control): at 46.1 µM (top of the series); also: nearly all actives have a fitted effect of over 35% in size;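 as to viability (% of control): 100% = DMSO-treated cells and 0% = cell-free media-only wells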
Outline: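 Cytotoxicity read by CellTiter-Glo luminescence after 48 h compound exposure at 37C; percent activity scaled between DMSO-treated cells and cell-free wells. Spheroid formats used cells pre-formed 14 days in stem cell media on hydrogel.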

[10] = Identifying Small Molecule Inhibitors of Pancreatic Cancer Stem Cells (Panc1, Spheroid) (AID 1259359); details: Panc1 spheroid cancer stem cell viability; viability, % of control: at 46.1 µM (top of the series);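 also: compound exposure lasted 48 h before reading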; also: potency is read from the fitted curve at half-maximal effect
Outline: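 Spheroids grown 14 days in stem cell media on hydrogel-coated nonadherent plates; 2D lines seeded directly. Compounds added after 4 h attachment, 48 h at 37C, 5% CO2; CellTiter-Glo luminescence normalized to DMSO (no inhibition) and no-cell wells (full inhibition).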

[11] = qHTS Assay for Identifying Gametocytocidal Compounds (AID 743244); also: potency is read from the fitted curve at half-maximal effect; details: P. falciparum 3D7 stage III-V gametocytes, alamarBlue, 72 h; max response: stronger effect = lower value
Outline: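 Late gametocytes (III–V), P. falciparum 3D7; 72 h drug, then 24 h alamarBlue; resazurin reduction read by fluorescence.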
Tags tell the direction and shape of the fitted curve.

In the case of `COc1ccc(Cc2ccc(NC(N)=O)cc2)cc1-c1cccc(Cl)c1`, the Potency [1] is reported as inconclusive: 29.6 µM [inhibitor, single point] and the Potency [2] is reported as inconclusive: 20.9 µM [inhibitor, single point].
For `CCC(C)N(C)C(=O)c1cc2ccccc2c(-c2ccccc2Cl)n1` (configuration not stated), the Potency [1] was inconclusive: 16.6 µM [inhibitor, partial curve, poor fit], the Potency [2] was “inactive” and the Potency [3] was inconclusive: 9.35 µM [inhibitor, partial curve, poor fit]. The Potency [4] was inconclusive: 0.0132 µM [rising, full curve], the Potency [5] was “inactive” and the Potency [6] was “inactive”. For the same molecule, the Potency [7] was inconclusive: 26.4 µM [inhibitor, single point].
For `COc1ccc(-c2nc3ccc(C4=NNC(=O)CC4C)cc3[nH]2)cc1` (configuration not stated), the Potency [1] was “inactive”, the Potency [2] was “inactive” and the Potency [3] was inconclusive: 20.9 µM [inhibitor, partial curve, poor fit]. For the same molecule, the Potency [8] was inconclusive: 7.08 µM [cytotoxic, full curve, poor fit] and the Potency [7] was “inactive and inconclusive: 18.4 µM [inhibitor, single point]”.
With `CC1(C)CCC(C)(C)c2cc(NC(=O)c3ccc(C(=O)O)cc3)ccc21` the Potency [1] was active: 23.5 µM, the Potency [2] was inconclusive: 29.6 µM [inhibitor, single point] and the Potency [3] was inconclusive: 29.6 µM [inhibitor, single point].
With `CN(C)Cc1ccc(-c2nc3cccc4c3n2CCNC4=O)cc1` the Potency [1] was inconclusive: 20.9 µM [inhibitor, partial curve], the Potency [2] was inconclusive: 20.9 µM [inhibitor, partial curve] and the Potency [3] was inconclusive: 18.7 µM [inhibitor, partial curve]. For the same molecule, the Potency [4] was inconclusive: 0.105 µM [cytotoxic, full curve, poor fit], the Potency [5] was “inactive” and the IC50 (viability decrease) [9] was active: 23.5 µM. The viability, % of control [6] was inconclusive: 97.3%.
With `O=C(Nc1cccnc1)N1CCC(Cc2cccc(Oc3ccc(C(F)(F)F)cn3)c2)CC1` the Potency [1] was active: 18.7 µM, the Potency [2] was inconclusive: 18.7 µM [inhibitor, partial curve] and the Potency [3] was inconclusive: 18.7 µM [inhibitor, partial curve]. For the same molecule, the Potency [4] was active: 18.7 µM, the Potency [5] was “inactive” and the viability, % of control [6] was inconclusive: 81.4%. The Potency [7] was inconclusive: 13.2 µM [inhibitor, partial curve] and inconclusive: 6.51 µM [inhibitor, partial curve].
For `CC1(C)Cc2c(-c3ccccc3)c(-c3ccc(Cl)cc3)c(CC(=O)O)n2C1`, the Potency [1] was inconclusive: 20.9 µM [inhibitor, partial curve], the Potency [2] was inconclusive: 20.9 µM [inhibitor, partial curve] and the Potency [3] was inconclusive: 37.2 µM [inhibitor, single point]. The Potency [4] was inconclusive: 26.4 µM [cytotoxic, single point], the Potency [5] was “inactive” and the IC50 (viability decrease) [9] was inconclusive: 20.9 µM [cytotoxic, partial curve]. For the same molecule, the viability, % of control [6] was inconclusive: 77% and the Potency [7] was inconclusive: 18.7 µM [inhibitor, single point] and inconclusive: 18.4 µM [inhibitor, partial curve].
In the case of `CCOC(=O)O[C@]1(C(=O)OCCl)CC[C@@H]2[C@H]3CCC4=CC(=O)C=C[C@]4(C)[C@@H]3[C@@H](O)C[C@@]21C`, the Potency [1] is reported as inconclusive: 37.2 µM [inhibitor, single point], the Potency [2] is reported as inconclusive: 37.2 µM [inhibitor, single point] and the Potency [3] is reported as inconclusive: 37.2 µM [inhibitor, single point]. The Potency [8] was inconclusive: 28.2 µM [cytotoxic, single point].
For `O=C(O)C1=NC(C(=O)O)CC(C=CN2c3cc(O)c(OC4OC(CO)C(O)C(O)C4O)cc3CC2C(=O)O)=C1` (configuration not stated), the Potency [1] was inconclusive: 20.9 µM [inhibitor, single point], the Potency [2] was “inactive” and the Potency [3] was inconclusive: 37.2 µM [inhibitor, single point].
With `CC[C@H](NC(C)C)[C@H](O)c1ccc(O)c2[nH]c(=O)ccc12` the Potency [1] was “inactive” and the Potency [2] was “inactive”.
In the case of `c1ccc(-c2nn3c(c2-c2ccnc4cc(OCCN5CCOCC5)ccc24)CCC3)nc1`, the Potency [1] is reported as inconclusive: 13.2 µM [inhibitor, partial curve, poor fit], the Potency [2] is reported as inconclusive: 29.6 µM [inhibitor, partial curve, poor fit] and the Potency [3] is reported as inconclusive: 33.2 µM [inhibitor, single point]. For the same molecule, the Potency [4] was inconclusive: 0.0042 µM [rising, full curve, poor fit], the viability, % of control [10] was inconclusive: 96% and the Potency [5] was inconclusive: 0.0332 µM [rising, full curve, poor fit]. The Potency [6] was “inactive” and the Potency [7] was inconclusive: 5.26 µM [inhibitor, partial curve] and inconclusive: 14.6 µM [inhibitor, partial curve].
In the case of `OC[C@H]1O[C@@H](Oc2ccc(O)cc2)[C@H](O)[C@@H](O)[C@H]1O`, the Potency [1] is reported as “inactive”, the Potency [2] is reported as inconclusive: 37.2 µM [inhibitor, single point] and the Potency [3] is reported as inconclusive: 37.2 µM [inhibitor, single point].
With `CN(CCOc1ccc(NS(C)(=O)=O)cc1)CCc1ccc(NS(C)(=O)=O)cc1` the Potency [1] was inconclusive: 37.2 µM [inhibitor, single point], the Potency [2] was inconclusive: 33.2 µM [inhibitor, single point] and the Potency [3] was inconclusive: 26.4 µM [inhibitor, single point].
For `CCC=CC[C@H]1C(=O)CC[C@@H]1CC(=O)OC`, the Potency [1] was inconclusive: 37.2 µM [inhibitor, single point], the Potency [2] was “inactive” and the Potency [3] was inconclusive: 20.9 µM [inhibitor, partial curve, poor fit]. The Potency [4] was inconclusive: 0.0372 µM [cytotoxic, full curve, poor fit], the Potency [10] was inconclusive: 1.48 µM [cytotoxic, partial curve, poor fit] and the Potency [5] was “inactive”. For the same molecule, the IC50 (viability decrease) [9] was “inactive” and the Potency [6] was inconclusive: 5.26 µM [cytotoxic, partial curve, poor fit].
In the case of `C[C@]12CC[C@H](O)CC1=CC[C@@H]1[C@H]2CC[C@]2(C)C(c3cccnc3)=CC[C@H]12`, the Potency [1] is reported as “inactive”, the Potency [2] is reported as “inactive” and the Potency [3] is reported as inconclusive: 0.812 µM [inhibitor, partial curve, poor fit]. For the same molecule, the Potency [4] was inconclusive: 0.001 µM [cytotoxic], the Potency [10] was inconclusive: 18.7 µM [cytotoxic, partial curve, poor fit] and the Potency [5] was “inactive”. For the same molecule, the Potency [6] was inconclusive: 14.8 µM [cytotoxic, partial curve, poor fit].
In the case of `CCN(CC)CCCC(C)Nc1nc(C)cc(Nc2ccc3nc(C)cc(N)c3c2)n1` (configuration not stated), the Potency [11] is reported as inconclusive: 29.6 µM [inhibitor, partial curve, poor fit], the Potency [1] is reported as “inactive” and the Potency [2] is reported as inconclusive: 20.9 µM [inhibitor, single point]. The Potency [3] was inconclusive: 33.2 µM [inhibitor, single point], the viability (percent of control) [4] was inconclusive: 69.4% and the Potency [5] was “inactive”. The viability, % of control [6] was inconclusive: 71.3%.
For `COc1ccccc1N1CCN(CC(O)COc2cccc3ccccc23)CC1` (configuration not stated), the Potency [1] was inconclusive: 9.35 µM [inhibitor, partial curve, poor fit], the Potency [2] was “inactive” and the Potency [3] was inconclusive: 18.7 µM [inhibitor, partial curve, poor fit]. The Potency [8] was inconclusive: 0.398 µM [cytotoxic, full curve, poor fit] and the Potency [7] was inconclusive: 1.03 µM [inhibitor, partial curve].
For `CC(C)=CCCC(C)=CCCC(C)=CCCC(C)=CCCC(C)=CCCC(C)=CCCC(C)=CCCC(C)=CCCC(C)=CCO`, the Potency [1] was “inactive”, the Potency [2] was “inactive” and the Potency [3] was inconclusive: 10.5 µM [inhibitor, partial curve, poor fit]. The Potency [7] was “inactive”.
For `CCCn1c(=O)c2[nH]c(-c3cnn(Cc4cccc(C(F)(F)F)c4)c3)nc2n(CC)c1=O`, the Potency [1] was “inactive”, the Potency [2] was “inactive” and the Potency [3] was “inactive”. For the same molecule, the Potency [7] was inconclusive: 3.66 µM [inhibitor, partial curve, poor fit].
In the case of `CCCCc1ccc(NS(=O)(=O)c2ccc(C)c(C(=O)N3CCN(c4cccc(C)c4C)CC3)c2)cc1`, the Potency [1] is reported as “inactive”, the Potency [2] is reported as inconclusive: 26.4 µM [inhibitor, single point] and the Potency [3] is reported as inconclusive: 20.9 µM [inhibitor, single point]. For the same molecule, the Potency [4] was inconclusive: 37.2 µM [cytotoxic, single point], the Potency [5] was inconclusive: 29.6 µM [cytotoxic, single point] and the Potency [6] was inconclusive: 18.7 µM [cytotoxic, partial curve, poor fit]. For the same molecule, the Potency [7] was inconclusive: 26.4 µM [inhibitor, single point].
In the case of `O=c1cc(N2CCOCC2)oc2c(-c3cccc4c3sc3ccccc34)cccc12`, the Potency [1] is reported as inconclusive: 5.26 µM [inhibitor, partial curve, poor fit], the Potency [2] is reported as inconclusive: 8.33 µM [inhibitor, partial curve, poor fit] and the Potency [3] is reported as inconclusive: 5.26 µM [inhibitor, partial curve, poor fit]. For the same molecule, the Potency [4] was active: 26.4 µM, the Potency [5] was inconclusive: 33.2 µM [cytotoxic, single point] and the Potency [6] was active: 23.5 µM.
In the case of `COc1ncnc(NS(=O)(=O)c2ccc(N)cc2)c1OC`, the Potency [1] is reported as “inactive”, the Potency [2] is reported as “inactive” and the Potency [3] is reported as “inactive”. For the same molecule, the Potency [8] was “inactive”.
For `CNC(=O)c1cc(COc2nnc(Nc3ccc(Cl)cc3)c3ccoc23)ccn1`, the Potency [1] was inconclusive: 23.5 µM [inhibitor, single point], the Potency [2] was “inactive” and the Potency [3] was inconclusive: 0.0166 µM [inhibitor, full curve, poor fit]. The Potency [4] was “inactive”, the Potency [10] was inconclusive: 14.8 µM [cytotoxic, partial curve, poor fit] and the Potency [5] was inconclusive: 0.0132 µM [rising, full curve, poor fit]. For the same molecule, the Potency [6] was inconclusive: 23.5 µM [cytotoxic, partial curve] and the Potency [7] was inconclusive: 23.1 µM [inhibitor, single point].
